The source of these data is the supplement of paper PMC12645437, “Orthogonal IMiD-Degron Pairs Induce Selective Protein Degradation in Cells” (ACS Chemical Biology, 2025).

The other results are listed elsewhere or left out.
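Also: jurkat cells carrying a lentiviral library of mutant zinc finger degrons fused to EGFP plus mCherry, mCherry+ cells FACS sorted, degron abundance counted by next-generation sequencing.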

The assay deals with no compound (DMSO). Put plainly: log2 fold change of degron read counts, EGFP-low vs EGFP+ sorted cells; higher = lower degron-EGFP level without compound (poor expression or instability). Particulars: compound: DMSO control; 18 h.
Take FCCDICGAWFTQKGNLLRHIKL: the “log2 fold change of degron read counts” value was -0.371.

As to FDCDQCGAPFTQKGNLLRHIKL, the “log2 fold change of degron read counts” value is -0.96.

Take FTCEICGRTFTQKGNLLRHIKL: the “log2 fold change of degron read counts” value was -1.46.

Turning to LMCEICGFHCTQKGNLLRHIKL, the “log2 fold change of degron read counts” value is 0.347.

In the case of LVCEICGFQCTQKGNLLRHIKL, the “log2 fold change of degron read counts” value was -0.194.

For the sequence FECNQCGRCFTQKGNLLRHIKL, the “log2 fold change of degron read counts” value was -1.53.

As for FKCNICGACFTQKGNLLRHIKL, the “log2 fold change of degron read counts” value is -0.462.

Turning to FMCEVCGAVFTQKGNLLRHIKL, the “log2 fold change of degron read counts” value is -1.06.

Take FGCNICGAGFTQKGNLLRHIKL: the “log2 fold change of degron read counts” value came to 0.0161.

Take LICPICGFSCTQKGNLLRHIKL: the “log2 fold change of degron read counts” value is 0.545.

Regarding FYCNQCGREFTQKGNLLRHIKL, the “log2 fold change of degron read counts” value is -0.248.

For FKCSVCGHVFTQKGNLLRHIKL, the “log2 fold change of degron read counts” value is -0.343.

Consider FCCEICGRQFTQKGNLLRHIKL, for which the “log2 fold change of degron read counts” value was -1.5.

As for FRCNQCGHRFTQKGNLLRHIKL, the “log2 fold change of degron read counts” value was -0.158.

As to FACPICGADFTQKGNLLRHIKL, the “log2 fold change of degron read counts” value is -0.433.

Consider FWCPQCGAMFTQKGNLLRHIKL, for which the “log2 fold change of degron read counts” value came out at 0.83.

For the sequence FMCPICGRYFTQKGNLLRHIKL, the “log2 fold change of degron read counts” value was determined as 0.804.

As for FECNICGAQFTQKGNLLRHIKL, the “log2 fold change of degron read counts” value was -0.448.

With FDCNQCGHDFTQKGNLLRHIKL, the “log2 fold change of degron read counts” value was -0.209.

FTCNVCGAHFTQKGNLLRHIKL: the “log2 fold change of degron read counts” value is -0.599.

In the case of LYCEICGFRCTQKGNLLRHIKL, the “log2 fold change of degron read counts” value was determined as 0.542.

FACEVCGASFTQKGNLLRHIKL: the “log2 fold change of degron read counts” value is -1.42.

As for FRCEICGRVFTQKGNLLRHIKL, the “log2 fold change of degron read counts” value was -1.09.

For the sequence FHCNQCGHNFTQKGNLLRHIKL, the “log2 fold change of degron read counts” value was found to be 0.00372.

With FSCSVCGHSFTQKGNLLRHIKL, the “log2 fold change of degron read counts” value is -0.499.

FGCPICGRPFTQKGNLLRHIKL: the “log2 fold change of degron read counts” value amounted to 0.727.

In the case of FKCPICGHLFTQKGNLLRHIKL, the “log2 fold change of degron read counts” value was -0.825.

For LYCNQCGFKCTQKGNLLRHIKL, the “log2 fold change of degron read counts” value was determined as 1.

Regarding FHCPICGRAFTQKGNLLRHIKL, the “log2 fold change of degron read counts” value was -1.29.

FWCEVCGAEFTQKGNLLRHIKL: the “log2 fold change of degron read counts” value was -1.61.

In the case of FECEICGRWFTQKGNLLRHIKL, the “log2 fold change of degron read counts” value is -0.683.

FACPICGRKFTQKGNLLRHIKL: the “log2 fold change of degron read counts” value was -1.15.

For FICPICGANFTQKGNLLRHIKL, the “log2 fold change of degron read counts” value is -0.699.

As to FMCDVCGAGFTQKGNLLRHIKL, the “log2 fold change of degron read counts” value was -1.56.

As to FTCEICGHHFTQKGNLLRHIKL, the “log2 fold change of degron read counts” value is -1.82.

As to LWCEICGFFCTQKGNLLRHIKL, the “log2 fold change of degron read counts” value was 3.03.

As to FECNQCGAHFTQKGNLLRHIKL, the “log2 fold change of degron read counts” value was -0.862.

FTCNQCGASFTQKGNLLRHIKL: the “log2 fold change of degron read counts” value is -1.73.

Turning to FGCNQCGAYFTQKGNLLRHIKL, the “log2 fold change of degron read counts” value stood at 1.11.

Turning to FHCNQCGHFFTQKGNLLRHIKL, the “log2 fold change of degron read counts” value was determined as 0.931.

Consider FVCEVCGANFTQKGNLLRHIKL, for which the “log2 fold change of degron read counts” value was -2.41.

Turning to FVCEICGRVFTQKGNLLRHIKL, the “log2 fold change of degron read counts” value is -2.45.

Consider LMCPICGFTCTQKGNLLRHIKL, for which the “log2 fold change of degron read counts” value was 0.34.

Regarding FLCSVCGHWFTQKGNLLRHIKL, the “log2 fold change of degron read counts” value is 1.1.

Take FSCPQCGAGFTQKGNLLRHIKL: the “log2 fold change of degron read counts” value is -1.85.

With FACNQCGAHFTQKGNLLRHIKL, the “log2 fold change of degron read counts” value was -0.662.

For the sequence FECNQCGHDFTQKGNLLRHIKL, the “log2 fold change of degron read counts” value was -1.09.

In the case of FKCNQCGRQFTQKGNLLRHIKL, the “log2 fold change of degron read counts” value was -1.32.

Regarding FCCNQCGHNFTQKGNLLRHIKL, the “log2 fold change of degron read counts” value was 0.0899.

FQCEQCGAKFTQKGNLLRHIKL: the “log2 fold change of degron read counts” value is -2.83.
